Screen size: about 50,000 compounds; about 800 (1.6%) showed an effect of 50% or more. This is one part of the list.
biological target: Bcl-2-like protein 10 (Homo sapiens) (UniProt Q9HD36); assay: Phenotype converters, Bcl-B/TR3 peptide binding displacement, primary biochemical FP (AID 1240); conditions: GST-Bcl-B / FITC-TR3 peptide fluorescence polarization; stronger effect = higher value; compound at 3.75 mg/L;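 also: 0% = Bcl-B with tracer peptide and DMSO and 100% = tracer peptide lacking Bcl-B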
UniProt Q9HD36, sequence (Q9HD36 whole entry, looked up): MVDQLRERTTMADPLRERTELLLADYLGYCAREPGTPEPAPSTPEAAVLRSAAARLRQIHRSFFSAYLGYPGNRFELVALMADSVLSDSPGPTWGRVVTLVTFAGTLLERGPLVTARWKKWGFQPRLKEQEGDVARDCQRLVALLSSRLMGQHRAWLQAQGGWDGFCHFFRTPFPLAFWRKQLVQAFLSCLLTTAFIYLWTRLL

SMILES	displacement
CCOc1ccc(Cl)cc1/C=C1/SC(=S)N(CC)C1=O	1.4%
COC(=O)CN(Cc1ccccc1)S(=O)(=O)c1ccccc1	-4.1%
Nc1nc2ccc3c(c2s1)CCCC3	-9%
Cc1cccc(NC(=O)/C(C#N)=C/c2cn(CC(=O)Nc3ccccc3)c3ccccc23)c1C	-60.5%
CCC1(C)C2(C#N)C(N)=NC(OC)(OC)C12C#N (stereo unspecified)	16.4%
CCCCc1n[nH]c2c1/C(=N\O)CC(C)(C)C2	6.6%
Cc1ccc(C(=O)NNC(=O)COc2ccc(C(C)(C)C)cc2)cc1	-1.9%
Cc1ccnc(NS(=O)(=O)c2ccc(NC(=O)COc3ccc(Cl)cc3)cc2)n1	-5.1%
CCOC(=O)N(CCCC(=O)OC)CP(C)(=O)OC(C)C (stereo unspecified)	-6.9%
CC(/C=C1\SC(=S)N(C(C)C(=O)O)C1=O)=C\c1ccccc1 (stereo unspecified)	2%
CCn1c2ccccc2c2nnc(NN)nc21	-2.3%
O=C(Nc1nc(-c2ccc(Cl)c(Cl)c2)cs1)c1cccc([N+](=O)[O-])c1	5.8%
Cc1ccc(CNC(=O)C(C)Oc2ccc(Cl)cc2Cl)cc1 (stereo unspecified)	-12.1%
CCCN1C(=O)c2ccccc2NC1c1cc(OC)c(OC)c(OC)c1 (stereo unspecified)	15.4%
Cc1ccc(C(=O)O/N=C(\N)c2ccc(Br)cc2)cc1[N+](=O)[O-]	1.6%
COc1cc(/C=C2/SC(=S)N(Cc3ccccc3)C2=O)ccc1OS(=O)(=O)c1ccccc1	1.9%
COCCCNC(=O)CN(c1ccccc1OC)S(=O)(=O)c1ccccc1	7.3%
CNC(=S)N(C)/N=C/C(=O)c1ccccc1	-7.7%
Cc1n[nH]c(C)c1Sc1ccccc1N=Cc1ccc([N+](=O)[O-])cc1	4.8%
CCOc1ccc(-c2cc(C(=O)Nc3nnc(C)s3)c3ccccc3n2)cc1	6.3%
CCN1C(=O)NC(c2ccccc2[N+](=O)[O-])C(C(=O)OC2CCCCC2)=C1C (stereo unspecified)	-8.3%
O=C(NC(C(=O)c1ccccc1)N1CCOCC1)c1ccccc1 (stereo unspecified)	-1%
O=C(COc1ccccc1)NCCCN1CCOCC1	3.3%
COc1cc(NC(=O)c2cccnc2)c(OC)cc1NC(=O)c1cccnc1	10.9%

SMILES	displacement
COc1ccc(C(=O)CC(Nc2ccc([N+](=O)[O-])cc2)c2ccc(OC)cc2)cc1 (stereo unspecified)	-7.7%
N/C(=N\OC(=O)c1ccccc1F)c1ccc([N+](=O)[O-])cc1	8.1%
COc1cc(NS(=O)(=O)c2ccc([N+](=O)[O-])cc2)c(OC)cc1Br	1.8%
CCN(CC)CCOc1ccccc1C	9.1%
CSc1nc(-c2ccccc2)nc(N2CCCC2)c1C(C)=O	5%
O=C(CCC(=O)Nc1cccc([N+](=O)[O-])c1)NCCO	0.5%
Cc1ccccc1NC(=O)c1c(NC(=O)Cc2ccccc2)sc2c1CCCCC2	14.5%
Nc1n[nH]c(N)c1N=Nc1cccc(C(F)(F)F)c1	-2.4%
CC(=O)N(C)c1ccc(NC(=S)Nc2ccccc2)cc1	0.1%
COc1cccc(OCCOc2cccc(/C=c3\sc4nc5ccccc5n4c3=O)c2)c1	4.4%
O=C(NC1CCCCCC1)c1cc(-c2ccco2)nc2ccccc12	-6.4%
COc1cc2nc(C)sc2cc1OC	1.9%
Cc1cccc(N2C(=O)/C(=C/c3ccc(Br)cc3)SC2=S)c1	15.9%
O=C(Nc1ccc(N2CCCCC2)c(Cl)c1)c1sc2ccccc2c1Cl	4.5%
Cc1cc(C)c2c(NCSCc3ccccc3)c(C#N)sc2n1	-6.7%
CCCc1cc(=O)n2[nH]c(-c3ccccc3)cc2n1	-13%
CN1C(=O)/C(=C\c2ccccc2OCCOc2ccc(C(C)(C)C)cc2)SC1=S	1.4%
COc1ccc(OC)c(/C=N\Nc2cc(C)c3ccccc3n2)c1	-0.3%
N#Cc1c(NC(=O)C2CCCC2)sc2c1CCCCCC2	4.7%
O=C1CC(N2CCN(c3ccc(Cl)cc3)CC2)C(=O)N1c1cccc(Br)c1 (stereo unspecified)	-7.8%
O=C(c1ccccc1)c1ccc2[nH]c3ccccc3c2c1	-6.9%
COC(=O)C1=C(C)NC(=O)/C1=C\c1ccc(Cl)cc1Cl	9.9%
COc1cc(C=C2C(=O)N(C)C(=O)N(C)C2=O)ccc1Oc1ccc([N+](=O)[O-])cn1	11.1%
NC(=O)NC(c1ccccc1)c1cccc(Br)c1 (stereo unspecified)	3.9%

SMILES	displacement
COc1ccc(C(=O)Nc2nc3ccc4ccccc4c3s2)c(OC)c1	-8%
CCN(CC)c1ccc(NC(=O)c2cc([N+](=O)[O-])ccc2Cl)cc1	12.9%
Cc1ccc2nsnc2c1NC(=O)c1ccc([N+](=O)[O-])cc1	0.8%
Cc1cc(N[C@@H]2O[C@@H](C)[C@H](O)[C@@H](O)[C@H]2O)c([N+](=O)[O-])cc1C	6.5%
COc1cc(/C=N/Nc2nn[nH]n2)ccc1O	11.4%
COc1ccccc1NC(=O)C1=C(C)NC2=C(C(=O)CCC2)C1c1cc(OC)c(OC)c(OC)c1 (stereo unspecified)	6.5%
C=CCNC(=O)/C=C/c1ccc(OC)c(OC)c1	16.6%
O=C(CSc1nc2ccccc2o1)Nc1ccccc1Br	3.9%
COC(=O)C1=C(C)NC2=C(C(=O)CC(c3ccccc3)C2)C1c1cc(Cl)c(O)c(OC)c1 (stereo unspecified)	10.5%
COc1ccc(CNC(=O)COc2ccccc2C)cc1	-17.9%
CCOc1cccc(C2Nc3ccccc3NC3=C2C(=O)CC(c2ccc(Cl)cc2)C3)c1 (stereo unspecified)	-3.3%
CN1CCOCCOCCN(C)C(=O)N2CCOCCOCCN(CCOCC2)C1=O	12.6%
NC(=O)c1c(NC(=O)c2ccco2)sc2c1CCCC2	0%
COc1ccc(C(=O)Oc2ccc(C=C3C(=O)NC(=O)NC3=O)cc2)cc1	-32.9%
COc1ccc(-n2c(C)cc(C)nc2=O)cc1	4.7%
O=C(Nc1cc(C(F)(F)F)ccc1Cl)C1COc2ccccc2O1 (stereo unspecified)	5.1%
C=CCOc1c(Br)cc(/C=C2/C(=O)NC(=O)N(c3ccccc3F)C2=O)cc1OCC	-3%
CC1(C)C=C(/C=C/c2ccccc2)NC(=S)N1	5.1%
CN(C)c1ccc(NC(=O)c2ccc(F)cc2)cc1	1.8%
CCOC(=S)N/C(=N/S(=O)(=O)c1ccc(C)cc1)c1ccccc1	13.7%
O=C(Nc1ccc2oc(-c3ccc(Cl)cc3Cl)nc2c1)c1ccc2c(c1)OCCO2	2.1%
O=C1CC(Cc2ccccc2)C(=O)N1c1ccc2ccccc2n1 (stereo unspecified)	4.3%
CCCCOC(=O)c1ccc(NC(=O)c2ccc(OC)c([N+](=O)[O-])c2)cc1	-1.2%
